Drawing on publication PMC12136788, this text covers binding signal for 22 molecules.

This is one part of the list.

T1: UNK ZnF1-3 (human, UniProt Q9C0B0 31-174)
T1 sequence: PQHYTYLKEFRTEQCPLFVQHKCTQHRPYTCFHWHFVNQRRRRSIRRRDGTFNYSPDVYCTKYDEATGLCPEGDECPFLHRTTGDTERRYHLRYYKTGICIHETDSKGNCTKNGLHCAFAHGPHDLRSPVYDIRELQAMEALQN

B1: chr19:33076771:33076772:+_ENSG00000105185_ENST00000590247|hu_hu|motif|central (ssRNA)
RNA: GGGAGUUCUACAGUCCGACGAUCUGCCAUCUGUAUAAGGUAAUUCUCUACUGCUUUAGUUUUUUCAGGCUUUACAAGUGCGGAGUUACUUAACCUGGCCCGGGCCGACUGAUCCAGAACUUGGGCUAAGAUACUGUUUCUCAUCAACAGAGGAUUGAGCAUCA
B2: chr8:101271117:101271118:-_ENSG00000034677_ENST00000519449|hu_hu|motif|central (ssRNA)
RNA: GGGAGUUCUACAGUCCGACGAUCAUAAUCACUGGAACCAUGACUACAAGAAGUUUUCAUGCUUUCUAGGUCAGAACAACGGAAUUCAGAAAAAUGACUAGAGUGAGAAUCUGCUACAGAAGGCAUACUGUCACUGAGGGAUGGCAACAGAGGAUUGAGCAUCA
B3: chrX:98878078:98878079:+_ENSMUSG00000034160_ENSMUST00000044475|mus_mus|FALSE|FALSE (ssRNA)
RNA: GGGAGUUCUACAGUCCGACGAUCAAGCAACAUUUUAGUUUAAAACCUCAGAAGAAUCAAGAUCACUUCACAUGAGUAAAAAUACCUGAAAGCAAACAUUUUUAAAAGCUCCAAAACCCAAAAUAUAAAGAAAAAAAAAAGGAUCAACAGAGGAUUGAGCAUCA
B4: chr12:96407613:96407614:-_ENSG00000111144_ENST00000228740|hu_mus|motif|central (ssRNA)
RNA: GGGAGUUCUACAGUCCGACGAUCCUUCCAGUCAUCAGUCGUUACACUUUGGUAGGAAAACUUCUUAACAUAAGCCUUUAAGAAUCCGGGAAACACCUCUGGUCCCCCAAGAAGCUGUUCAAGGUAGAAGAGUAGCGCAAAGCCCAACAGAGGAUUGAGCAUCA
B5: chr4:140556289:140556290:+_ENSMUSG00000036622_ENSMUST00000037055|mus_mus|mus_mus_mus_hu_False|8_68 (ssRNA)
RNA: GGGAGUUCUACAGUCCGACGAUCGAUGGAGCUCACCAGGCCCCCUUUUGCCGUGCAGAACCCUGUGCGAGUCACCACUGCCAGGACGUGCGGUCCCACAUAGGCCCGGGCCUGCAAGAUGAGGGUCCCACAGAAGAGUGUGUGCAACAGAGGAUUGAGCAUCA
B6: chr7:141441981:141441982:+_ENSG00000106028_ENST00000265304|hu_mus|hu_hu_hu_mus_False|28_58 (ssRNA)
RNA: GGGAGUUCUACAGUCCGACGAUCCUCAUGUCUUACAAACUGACGAAAUACCUGUAACACAGGUCUUCGAAACAUGGCUUCUAUUUUUCUUACAACCUAAUCUUUAGUUAGGCUUUUAAGGAAAGAAAGAAAAGAGAAAAAUGACAACAGAGGAUUGAGCAUCA
B7: chr6:40197388:40197389:+_ENSMUSG00000057716_ENSMUST00000061740|mus_mus|mus_mus_mus_hu_False|18_28 (ssRNA)
RNA: GGGAGUUCUACAGUCCGACGAUCGAGACACUGGGGUGGAUUUAUUCCACCUCUGUUUGGGUGCUAGCCACUAAGACUGUUAUUUUGGGAUUCAUGGCCUUGAAUAUCAAGAGGAAAGGGACGAGAAUGGAAAGAGUCAAGAGUCAACAGAGGAUUGAGCAUCA
B8: chr4:57314706:57314707:+_ENSG00000128050_ENST00000264221|hu_mus|hu_hu_hu_mus_True|48_78 (ssRNA)
RNA: GGGAGUUCUACAGUCCGACGAUCCAGAAUUUCAAAAAUAGCUUGUGUGGCAUGACUCAUGAUAUCCACUUCAGUCUGCCCUAUAACAAGUCCAGCAAAACAGAAUUUUGCAGCAAUGAGUUGCUCCUCAGACCACUGUGGAUCCAACAGAGGAUUGAGCAUCA
B9: 46381354_46381577_853_CDS_ENSMUSG00000067148_ENSMUST00000087026|mouse|control|control (ssRNA)
RNA: GGGAGUUCUACAGUCCGACGAUCCCUGGCCACCUUUUUACCUUGUACUUCCUCCACCUCAAUCACGCCAGGGGAGAAACACUGGCUCAGCUCCUCAGCCGCUUCUCCUUCCACAGGCUCAAGCAGAGUGAUGGCCGGUAGCAGCAACAGAGGAUUGAGCAUCA
B10: 25783920_25784040_2318_CDS_ENSG00000091490_ENST00000264868|human|control|control (ssRNA)
RNA: GGGAGUUCUACAGUCCGACGAUCGUAUGACGCAUCUGGGUUCCCCAUUUCUUCUGCUUUUAACCAGUACUUUGCUGCUUUGGCGUAAUUUUUCUUGAAUUUGUGGUAAUACCAUCCCAGGCCAUUGACUGCCUGAUGCAAUCCCAACAGAGGAUUGAGCAUCA
B11: chr7:54823571:54823572:-_ENSG00000132432_ENST00000352861|hu_mus|hu_hu_hu_mus_False|1_58 (ssRNA)
RNA: GGGAGUUCUACAGUCCGACGAUCUCCCAUGAUAGCAAAUCCUAUAGCUGUAGCCAUGGCAAUCUUCUGGAAUUCUUUUCUAUCAGGUUUGGUGCAUCUUUUAACCAGCCGAAUUGAGUCCUUUACAAACUGCCGGCUUGGCUCCAACAGAGGAUUGAGCAUCA
B12: chr6:146598974:146598975:+_ENSMUSG00000030291_ENSMUST00000032429|mus_hu|motif|central (ssRNA)
RNA: GGGAGUUCUACAGUCCGACGAUCCUGAUUCAAUCAUGAUUUUAUAAGCUUAUCAAGAGUGAAAAUAGAAGACUAUUAAAAAUAGCGGAAAAGGUAAUGUGUCAUAGUGUUUAAUGUUUCUGUAAUUGUUGGUAAGGCUUGUAUCAACAGAGGAUUGAGCAUCA
B13: chr2:232320318:232320319:-_ENSG00000115053_ENST00000322723|hu_hu|hu_hu_hu_mus_True|38_58 (ssRNA)
RNA: GGGAGUUCUACAGUCCGACGAUCACUAUUAAAGUCUACAAAACCAAACCCUUUGGAAGAACCAGUUUCCCGAUCAGUAACUAUCCUUGCACGAACAGAGCCGUCAAAUGAUUCUUUUAAGGUCUCUUCAGUGGUAUCCUCAGACAACAGAGGAUUGAGCAUCA
B14: chr6:108246082:108246083:-_ENSG00000025796_ENST00000369002|hu_mus|motif|central (ssRNA)
RNA: GGGAGUUCUACAGUCCGACGAUCUGUUUUGGAAACUUUGUAUGCAAGAAAUAAGAACAGUGCCCAUCCUGCAAGCAGAACGGUUUUCUUUACUGUAGGAAUAAUAUUUGGCUGGGGUUUUAAUAACCGUAAACGAUACCACAUCAACAGAGGAUUGAGCAUCA
B15: chr3:148802587:148802588:-_ENSG00000071794_ENST00000310053|hu_mus|hu_hu_hu_mus_False|8_38 (ssRNA)
RNA: GGGAGUUCUACAGUCCGACGAUCUCCAACAACUUGUCCUCUCAUAGUUCCAAAUAAAACCAAAUCUUGCUCUUCAUCACUCGUUAGGAAGUCAUCUGGAGGGAUAAUGUCUUGGAAUUCAAAAUGUGGAAAGAAAGUUGAGUACAACAGAGGAUUGAGCAUCA
B16: chr1:202705475:202705476:-_ENSG00000117139_ENST00000367264|hu_hu|motif|central (ssRNA)
RNA: GGGAGUUCUACAGUCCGACGAUCCAGUCUUGGCAAAGAAUUCAGAUGUACGGGGAUAGAUCGGCCUCGUGUAACAAGUUCGGUGAGUGUGUCUAACACUGGCACACGUCCUCCAGCCUGCAGGCCCUCUACAUCCUGAAGCCACAACAGAGGAUUGAGCAUCA
B17: chr7:149068622:149068623:-_ENSMUSG00000025139_ENSMUST00000001950|mus_hu|mus_mus_mus_hu_False|48_88 (ssRNA)
RNA: GGGAGUUCUACAGUCCGACGAUCGUGAGGCCUCUGAGUGUGGCUUGUGCUCUGCAGUGGGUUAGAGUUGUUAAUAUCACGGAACAUACCACUUAAGACGUUCCAGUCCCGCCUGACACCUUCAUUCCCAAUGGAGAAGAAAUCCAACAGAGGAUUGAGCAUCA
B18: 86453445_86453565_1449_CDS_ENSMUSG00000013033_ENSMUST00000141158|mouse|control|control (ssRNA)
RNA: GGGAGUUCUACAGUCCGACGAUCCGUGGUGGUGUGGCGUGCGGCUACAUAGUCCUCCCAUGAGGCAUAUUCAGUCAAUGUGUCCGUGCGGUAGGGGAUCCAGGGCAUAACGUAGAUACGGUCACCUGCCUGCAGCGGGUCCUUCAACAGAGGAUUGAGCAUCA
B19: chr5:135103553:135103554:-_ENSMUSG00000040731_ENSMUST00000036125|perfect_dup|FALSE|FALSE (ssRNA)
RNA: GGGAGUUCUACAGUCCGACGAUCGUCUUUGUCUCUGACUAGCCGUACACUCCUUAUGCUGAGAUCCUUAAAGAUAGCAUCUAUGUCGCCCUGAACCGUAUUGAAAGGUAGAUUUCCUACGUAUGCUGUGUAGGGGGGCUCUGUCAACAGAGGAUUGAGCAUCA
B20: chr5:145543945:145543946:-_ENSG00000133706_ENST00000545646|hu_hu|hu_hu_hu_mus_True|38_108 (ssRNA)
RNA: GGGAGUUCUACAGUCCGACGAUCCUGAAUAGCCAGUGGUGGGAAAUAAUCAAGCCAGUGCUCUGCUUCAGAAAACUUCACUAUGUCGUCAUCAGAGAGGCCAAGGGAUUUCAUAAUGUCCCACUGGUACUUAGAAGAUCCUGCCAACAGAGGAUUGAGCAUCA
B21: chr3:150289932:150289933:+_ENSG00000144895_ENST00000460851|hu_hu|hu_hu_hu_mus_False|58_78 (ssRNA)
RNA: GGGAGUUCUACAGUCCGACGAUCCUUGUAGUUUUUAACAUCCCAUACUUCCAUUUGUCCCCUCAGAUUUCCAAAUCCAGCUAAUACUAAUAUAUGUCCAUGAGGGCUAUAGAAGGCUGCGUUGCGAGGACCAGUCCCAAAGUCCAACAGAGGAUUGAGCAUCA
B22: 87705668_87706460_6155_CDS_ENSG00000163629_ENST00000511467|human|control|control (ssRNA)
RNA: GGGAGUUCUACAGUCCGACGAUCCACAACAUCCAGCAGAGACUGGAUAACUUCAGCUUCUUGGGAAUCAUCAUAAAUGUCAUCUUCUUGUAUAUAAGAUUCUUUGGGCAGAGUCAAGUUUGGUGAUCCCUUUAUCUGAUAAGUCAACAGAGGAUUGAGCAUCA

The test concerns the target T1, UNK ZnF1-3. Kind of test: nsRBNS (natural sequence RNA bind-n-seq); RBNS binding buffer (assumed for nsRBNS): 25 mM Tris pH 7.5, 150 mM KCl, 3 mM MgCl2, 0.01% Triton X-100, 500 ug/ml BSA, 20 U/ml SUPERase-In, 4 C; UNK is unkempt and MSI1 is Musashi-1; names of the RNAs are library labels; protein concentration not given here; high values mean tight binding.
Take B1: the binding signal was 0.879 enrichment R.

In the case of B2, the binding signal came to 1.19 enrichment R.

In turn, B3 registered a binding signal of 1.48 enrichment R.

Consider B4, for which the binding signal turned out to be 1.18 enrichment R.

In turn, B5 gave a binding signal of 1.01 enrichment R.

Consider B6, for which the binding signal was found to be 0.595 enrichment R.

As to B7, the binding signal worked out at 1.21 enrichment R.

The molecule B8 came in with a binding signal of 0.97 enrichment R.

Molecule B9 registered a binding signal of 0.646 enrichment R.

As to B10, the binding signal is 0.487 enrichment R.

B11 had a binding signal of 0.807 enrichment R.

Molecule B12 came in with a binding signal of 2.46 enrichment R.

The molecule B13 came in with a binding signal of 0.97 enrichment R.

As to B14, the binding signal amounted to 0.646 enrichment R.

As for B15, the binding signal is 1.22 enrichment R.

The molecule B16 showed a binding signal of 0.712 enrichment R.

As to B17, the binding signal worked out at 0.788 enrichment R.

In the case of B18, the binding signal was 0.82 enrichment R.

B19 yielded a binding signal of 0.876 enrichment R.

In turn, B20 displayed a binding signal of 1.28 enrichment R.

B21 had a binding signal of 1.19 enrichment R.

Molecule B22 showed a binding signal of 0.776 enrichment R.
